From article PMC4336329 (PLoS ONE, 2015) come the findings set out here.

About 2,200 (0.71%) of roughly 310,000 compounds showed an effect of 50% or more. The effect is printed as a negative number. This is one part of the list.

For this assay, the target named is human ether-à-go-go-related gene (hERG) potassium channel (human, UniProt Q12809). Description: primary screen, population patch clamp on CHO cells stably expressing hERG.
human ether-à-go-go-related gene (hERG) potassium channel, sequence (Q12809 whole entry, looked up): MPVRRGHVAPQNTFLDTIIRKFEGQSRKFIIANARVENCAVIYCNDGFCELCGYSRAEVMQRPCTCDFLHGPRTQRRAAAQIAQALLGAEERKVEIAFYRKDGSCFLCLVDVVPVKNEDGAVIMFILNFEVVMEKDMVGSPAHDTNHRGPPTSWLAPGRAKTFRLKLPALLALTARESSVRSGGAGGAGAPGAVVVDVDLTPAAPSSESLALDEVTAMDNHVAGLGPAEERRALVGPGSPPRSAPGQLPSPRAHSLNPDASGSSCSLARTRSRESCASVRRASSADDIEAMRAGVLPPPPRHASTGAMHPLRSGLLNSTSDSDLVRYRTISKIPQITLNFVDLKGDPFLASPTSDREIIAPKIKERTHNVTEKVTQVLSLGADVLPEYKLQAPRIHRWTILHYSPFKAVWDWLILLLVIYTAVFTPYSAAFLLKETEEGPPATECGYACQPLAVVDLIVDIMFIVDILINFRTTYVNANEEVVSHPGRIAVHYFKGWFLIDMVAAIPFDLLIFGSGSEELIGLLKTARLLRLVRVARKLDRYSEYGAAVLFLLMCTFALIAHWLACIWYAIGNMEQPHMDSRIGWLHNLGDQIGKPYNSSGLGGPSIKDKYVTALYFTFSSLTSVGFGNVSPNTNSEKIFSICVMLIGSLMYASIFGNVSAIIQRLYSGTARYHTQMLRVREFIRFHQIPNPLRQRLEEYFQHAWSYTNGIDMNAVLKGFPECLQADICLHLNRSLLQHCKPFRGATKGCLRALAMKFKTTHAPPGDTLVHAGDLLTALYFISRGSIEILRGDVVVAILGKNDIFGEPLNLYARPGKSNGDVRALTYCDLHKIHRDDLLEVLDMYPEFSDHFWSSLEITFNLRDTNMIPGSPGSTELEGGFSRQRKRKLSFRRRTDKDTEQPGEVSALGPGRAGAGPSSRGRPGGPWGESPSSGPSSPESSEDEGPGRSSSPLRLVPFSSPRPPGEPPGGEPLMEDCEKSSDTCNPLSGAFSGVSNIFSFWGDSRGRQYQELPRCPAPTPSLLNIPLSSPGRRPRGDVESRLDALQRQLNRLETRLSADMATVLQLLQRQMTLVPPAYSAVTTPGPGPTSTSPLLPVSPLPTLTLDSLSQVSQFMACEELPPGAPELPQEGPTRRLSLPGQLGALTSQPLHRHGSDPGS
Regarding `O=C(Nc1ccc(S(=O)(=O)Nc2nccs2)cc1)c1ccccc1OC(F)F`, the “hERG current change (%, negative = inhibition) at 1uM” value is given as 12.2%.
`CC(=O)c1ccc(NC(=S)N2CC(C)CC(C)C2)cc1` (stereo not shown): the “hERG current change (%, negative = inhibition) at 1uM” value is -4.81%.
Take `Oc1ccc(/C=N/n2c(COc3ccccc3)n[nH]c2=S)cc1O`: the “hERG current change (%, negative = inhibition) at 1uM” value stood at 13.1%.
Then `COc1ccc(-c2nnc(SC(C)C(=O)Nc3ccc4c(c3)OCCO4)o2)cc1` (stereo not shown), with 3.6%.
Then `O=C(COC(=O)c1cccnc1)Nc1cccc2ccccc12`, with 14.1%; and `Cc1cccc(Oc2c(C=O)c3ccccc3n2C)c1`, with 8.07%.
As for `O=C(c1ccc(S(=O)(=O)N2CCCCC2)cc1)N1CCc2ccccc2C1`, the figure is 1.18%; as for `O=c1[nH]nc(-c2ccc(F)cc2)cc1Cc1ccc(F)cc1`, -2.71%; as for `Cn1c(N)c(C(=O)COC(=O)CSc2ccc(Cl)cc2)c(=O)n(C)c1=O`, -2.13%.
As for `CCN(C(=O)c1cc2cc3ccc(C)cc3nc2o1)c1ccc(OC)cc1`, the “hERG current change (%, negative = inhibition) at 1uM” value was 11%.
As to `CCC1C(=O)NCCN1C(=O)CCc1nnc(CCc2ccc(OC)cc2)o1` (stereo not shown), the “hERG current change (%, negative = inhibition) at 1uM” value is 7.04%.
Then `NC(=O)c1c(NC(=O)Cn2nc(C(=O)O)c3ccccc3c2=O)sc2c1CCCC2`, with 17.2%.
As for `C=CCCCCCCCCc1nc(=S)[nH][nH]1`, the figure is 13.7%.
As for `COc1ccccc1Cn1c(=O)c2ccccc2n2c(SCc3csc(C)n3)nnc12`, the figure is 8.96%.
Consider `COCCN1C(=O)N(c2cccc(C)c2)C(=O)C1CC(=O)Nc1ccc(OC)cc1` (stereo not shown), for which the “hERG current change (%, negative = inhibition) at 1uM” value is listed as 16.9%.
As for `Cc1c(Cl)cccc1N1C(=O)CC(N(O)c2ccccc2)C1=O` (stereo not shown), the figure is 14.5%.
As for `CC1CCc2[nH]c3ccc(C(=O)N(C)CC(=O)Nc4ccccc4C(F)(F)F)cc3c2C1` (stereo not shown), the figure is 3.78%.
As for `Cc1ccc(C(C)C)c(OCc2ccc(-c3nnco3)cc2)c1`, the figure is 9.34%.
As to `CN1CCc2c(sc(NC(=O)CS(=O)(=O)c3ccccc3)c2C(N)=O)C1.Cl`, the “hERG current change (%, negative = inhibition) at 1uM” value is -0.0637%.
Regarding `O=C(NCCCN1CCCC1=O)c1ccc(NS(=O)(=O)c2ccc(F)cc2)cc1`, the “hERG current change (%, negative = inhibition) at 1uM” value is recorded as 10.9%.
Then `N/C(=N\N=C\c1ccco1)SC1CC(=O)N(c2ccccc2)C1=O` (stereo not shown), with 5.55%; and `CC1(C(=O)NCC2CCCO2)Oc2cccnc2NC1=O` (stereo not shown), with 7.64%; and `COC(=O)CN(C#N)c1nc(N(C)C)nc(N(C)C)n1`, with -1.03%.
As to `Nc1c(N(Cc2ccccc2)C(=O)COc2cccc(Cl)c2)c(=O)[nH]c(=O)n1Cc1ccccc1`, the “hERG current change (%, negative = inhibition) at 1uM” value is -2.34%.
As for `CNC(=S)N(Cc1cc2cc(OC)c(OC)cc2[nH]c1=O)C1CCCC1`, the figure is 13.7%.
As for `O=C(CCC(=O)OCC(F)(F)C(F)F)Nc1ccccc1F`, the figure is 19%; as for `CCOC(=O)C1CCN(S(=O)(=O)c2ccc3c(c2)NC(=O)C(C)C(=O)N3)CC1` (stereo not shown), 17.7%; as for `O=C(c1cccs1)n1nc(NCc2ccccc2)nc1NCc1ccccc1`, 15.9%.
As for `CC(=O)c1c(C(C)=O)c(C)n(Cc2ccc3c(c2)OCO3)c1C`, the figure is 12.2%.
As for `CC1(NC(=O)CN2CCN(c3cnn(-c4ccccc4)c(=O)c3Cl)CC2)CCS(=O)(=O)C1` (stereo not shown), the “hERG current change (%, negative = inhibition) at 1uM” value is given as -5.76%.
Then `CC(=O)CCc1oc2ccc(NC(C)=O)cc2c1-c1ccc(C)o1`, with 0.352%; and `CCN(CC)CCNC(=O)c1cc(Nc2ccc(OC)c(OC)c2)nc2ccccc12`, with -6.4%; and `Cc1csc(NC(=O)CSc2nsc(SCC(=O)Nc3nc(C)cs3)c2C#N)n1`, with 1.1%.
As for `CCC(c1nnc(SCC(=O)Nc2ccc(S(N)(=O)=O)cc2)n1Cc1ccccc1)N(C)C` (stereo not shown), the figure is 3.56%; as for `O=C(NCCO)c1ccc2c3n(nc2c1)-c1ccc(Cl)cc1CO3`, 4.62%; as for `CCN1C(=O)c2cccc3c(S(=O)(=O)Nc4ccccc4)ccc1c23`, 4.66%.
For `CC(C)CN(C(=O)COC(=O)C12CC3CC(CC(C3)C1)C2)c1c(N)n(Cc2ccccc2)c(=O)[nH]c1=O`, the “hERG current change (%, negative = inhibition) at 1uM” value was 19.8%.
Then `O=C(Nc1ccccc1)c1ccc(-c2ccccc2C(F)(F)F)o1`, with -6.18%; and `CCC(CC)C(=O)Nc1nnc(-c2cccs2)s1`, with 9.91%.
Then `O=C(CCNS(=O)(=O)c1ccc(OC(F)(F)F)cc1)N1CCN(S(=O)(=O)c2cccc(F)c2)CC1`, with 15.2%; and `CN(C(=O)Cn1c(=O)oc2ccccc21)C1CCCCC1`, with 3.61%; and `O=C(NCCCn1ccnc1)c1cc2ccccc2oc1=O`, with 4.74%.
As for `COc1cc(C(=O)NCc2ccncc2)cc(Br)c1OCc1ccccc1`, the figure is 13.6%.
